Laboratory results reported in the supplement of paper PMC7826260.
The other results are listed elsewhere or left out. Each Rep nickase domain was tested in vitro on the same pool of single strands for 1 h at 37 °C with 3 µM enzyme; only the middle of the 90-letter strands is printed. A value is the log2 ratio of uncut reads to the pool without enzyme; uncut sequences lie near 0, cut ones below; no hit call is given. The scaling is to total reads; values above 0 arise when much of the pool is cut.

What was measured:
Test in all cases: uncleaved DNA left, log2 of reads against the no-enzyme library (log2 ratio); higher = less cleavage (more negative = more Rep cleavage of the k-mer); sequences stand for … in CTCGTCCG…ACCGGAGA
[1] = test system: T1, Rep nickase domain of Muscovy duck circovirus
T1 sequence (protein, residues 1-111, tag omitted): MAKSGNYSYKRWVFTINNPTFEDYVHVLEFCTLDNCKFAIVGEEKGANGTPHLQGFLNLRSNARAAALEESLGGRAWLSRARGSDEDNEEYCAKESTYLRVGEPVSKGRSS
Procedure: (§1)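 A pool of 90-nt single-stranded DNAs with seven random bases just before the constant AC of the nick site (name = the seven bases) was cut by 3 µM recombinant His6-SUMO-tagged Rep nickase domain (300 nM DNA, 50 mM HEPES pH 8.0, 50 mM NaCl, 1 mM MnCl2, 1 h, 37 °C, three replicates). Uncut DNA was amplified and sequenced.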

[2] = test system: T2, Rep nickase domain of banana bunchy top virus
T2 sequence (protein, residues 1-94, tag omitted): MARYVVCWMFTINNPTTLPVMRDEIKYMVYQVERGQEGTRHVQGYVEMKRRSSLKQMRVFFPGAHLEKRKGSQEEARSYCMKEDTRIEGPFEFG
Procedure: as §1

[3] = test system: T3, Rep nickase domain of cabbage leaf curl virus
T3 sequence (protein, residues 1-116, tag omitted): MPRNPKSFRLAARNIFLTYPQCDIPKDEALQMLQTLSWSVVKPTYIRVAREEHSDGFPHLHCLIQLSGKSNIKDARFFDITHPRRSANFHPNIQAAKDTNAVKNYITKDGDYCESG
Procedure: as §1

[4] = test system: T4, Rep nickase domain of chickpea chlorotic dwarf virus
T4 sequence (protein, residues 1-124, tag omitted): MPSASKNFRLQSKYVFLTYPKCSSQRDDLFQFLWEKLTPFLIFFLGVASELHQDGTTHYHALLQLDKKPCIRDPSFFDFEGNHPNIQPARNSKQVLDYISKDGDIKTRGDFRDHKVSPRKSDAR
Procedure: as §1

[5] = test system: T5, Rep nickase domain of faba bean necrotic yellows virus
T5 sequence (protein, residues 1-98, tag omitted): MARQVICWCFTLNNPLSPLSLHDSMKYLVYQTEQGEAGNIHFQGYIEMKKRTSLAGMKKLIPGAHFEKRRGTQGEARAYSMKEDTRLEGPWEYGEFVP
Procedure: as §1

[6] = test system: T6, Rep nickase domain of maize striate mosaic virus
T6 sequence (protein, residues 1-117, tag omitted): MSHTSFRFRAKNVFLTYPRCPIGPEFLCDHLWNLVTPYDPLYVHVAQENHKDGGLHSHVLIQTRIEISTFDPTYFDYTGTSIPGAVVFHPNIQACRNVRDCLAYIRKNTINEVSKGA
Procedure: as §1

[7] = test system: T7, Rep nickase domain of porcine circovirus 2
T7 sequence (protein, residues 2-116, tag omitted): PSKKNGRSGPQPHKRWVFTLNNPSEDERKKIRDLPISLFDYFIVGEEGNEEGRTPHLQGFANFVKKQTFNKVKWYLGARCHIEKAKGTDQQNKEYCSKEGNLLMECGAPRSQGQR
Procedure: as §1

[8] = test system: T8, Rep nickase domain of tomato golden mosaic virus
T8 sequence (protein, residues 1-124, tag omitted): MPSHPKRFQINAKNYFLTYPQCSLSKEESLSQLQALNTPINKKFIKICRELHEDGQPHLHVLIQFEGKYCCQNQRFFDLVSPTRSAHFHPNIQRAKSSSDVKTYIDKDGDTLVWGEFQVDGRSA
Procedure: as §1

[9] = test system: T9, Rep nickase domain of tomato yellow leaf curl virus
T9 sequence (protein, residues 1-136, tag omitted): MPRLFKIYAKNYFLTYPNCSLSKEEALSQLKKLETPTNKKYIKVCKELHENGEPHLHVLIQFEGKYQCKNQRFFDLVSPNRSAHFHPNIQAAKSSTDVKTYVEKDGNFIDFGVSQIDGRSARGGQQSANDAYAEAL
Procedure: as §1

[10] = test system: T10, Rep nickase domain of wheat dwarf virus
T10 sequence (protein, residues 1-137, tag omitted): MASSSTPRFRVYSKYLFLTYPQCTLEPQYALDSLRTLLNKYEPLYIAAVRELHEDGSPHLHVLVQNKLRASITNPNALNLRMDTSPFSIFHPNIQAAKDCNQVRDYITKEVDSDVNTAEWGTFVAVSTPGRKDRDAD
Procedure: as §1

Sequence | uncleaved DNA left (log2) [1] | uncleaved DNA left (log2) [2] | uncleaved DNA left (log2) [3] | uncleaved DNA left (log2) [4] | uncleaved DNA left (log2) [5] | uncleaved DNA left (log2) [6] | uncleaved DNA left (log2) [7] | uncleaved DNA left (log2) [8] | uncleaved DNA left (log2) [9] | uncleaved DNA left (log2) [10]
GTAACCC | -0.114 | 0.00495 | 0.205 | 0.491 | 0.00783 | 1.31 | -0.326 | 0.0235 | -0.00432 | -0.0521
CATAAGG | 0.204 | 0.125 | 0.189 | 0.955 | 0.0883 | 0.131 | 0.217 | 0.248 | 0.101 | 0.13
AGAGCGA | 0.00283 | -0.0388 | -0.295 | -0.232 | -0.0414 | -0.876 | -0.118 | -0.0126 | -0.057 | -0.164
CCGACCC | 0.00037 | -0.0333 | 0.0652 | 0.243 | -0.0292 | 0.295 | -0.135 | -0.123 | -0.0199 | -0.0106
CATGCGC | 0.0344 | -0.0253 | -0.873 | 0.119 | -0.0755 | -0.712 | 0.0982 | -0.259 | -0.0821 | -0.128
CGTTCGC | -0.0679 | 0.0165 | -0.339 | -0.611 | 0.032 | -0.739 | 0.187 | -0.0488 | 0.06 | -0.0354
TACGGTA | -0.0163 | -0.15 | 0.132 | -0.71 | -0.0386 | 0.602 | -0.17 | 0.138 | -0.139 | -0.0926
GCCAGTA | 0.00609 | 0.098 | 0.27 | 0.119 | 0.206 | 0.108 | 0.132 | 0.0808 | 0.129 | 0.12
GCCCTAT | -0.0677 | -0.0259 | 0.351 | 0.221 | 0.156 | 0.441 | 0.108 | 0.17 | 0.181 | 0.0673
AGATAGA | 0.0043 | 0.00902 | 0.0407 | 0.131 | 0.0857 | -0.706 | 0.105 | 0.0806 | 0.0442 | -0.0591
TGGCAAT | 0.034 | -0.00848 | 0.597 | 1.41 | 0.0133 | 1.68 | 0.156 | -0.0624 | -0.0273 | 0.188
GACAGCG | 0.156 | 0.0933 | -0.554 | 0.708 | 0.0577 | -0.249 | 0.101 | 0.00337 | 0.0136 | -0.0291
GCTTCGC | -0.00988 | 0.0284 | -0.257 | -0.126 | -0.0706 | -0.681 | 0.172 | 0.023 | -0.00533 | -0.151
TCGCGAC | -0.0244 | -0.148 | -0.173 | -0.141 | 0.0182 | -0.804 | -0.0882 | -0.0762 | 0.00439 | -0.164
CGATTAA | -0.0215 | -0.0428 | -0.141 | -0.32 | -0.0736 | -0.446 | -0.0337 | -0.0832 | -0.174 | -0.0476
GATCGGG | 0.113 | 0.0763 | 0.251 | 0.397 | 0.137 | -0.049 | 0.195 | 0.0957 | 0.0781 | 0.11
AAGTCCT | -0.67 | -1.49 | -0.147 | -2.57 | -0.906 | 0.0615 | -3.76 | -0.0401 | -0.0896 | -0.154
CGCGGCA | 0.0553 | 0.0311 | -0.0991 | -0.0322 | 0.0177 | -0.261 | -0.0965 | -0.0341 | 0.121 | -0.0216
CTGTGCG | -0.167 | -0.271 | -0.83 | 0.359 | -0.132 | -0.38 | -0.0433 | -0.268 | -0.376 | -0.303
ACGTATC | 0.0346 | 0.163 | 0.0393 | 0.0562 | 0.0756 | -0.499 | 0.123 | 0.187 | -0.0059 | 0.0806
GTTGCTT | -0.12 | -0.105 | 0.0444 | 0.332 | -0.0453 | 0.496 | -0.0487 | -0.0365 | -0.0738 | -0.156
GTAATTT | -0.0523 | 0.134 | 0.359 | 0.735 | -0.0171 | 1.8 | 0.133 | 0.0553 | 0.0782 | 0.09
CAGGACG | -0.0137 | 0.125 | -0.319 | -0.126 | -0.00528 | -1.07 | 0.167 | 0.0823 | 0.0658 | -0.0251
TGAATGT | 0.0489 | -0.00103 | 0.0907 | 0.198 | -0.0464 | 0.316 | -0.0319 | -0.0717 | 0.038 | 0.0752
CAACAAG | -0.0315 | 0.0132 | -0.808 | -0.496 | 0.0225 | -1.23 | 0.168 | -0.0788 | 0.0503 | -0.0859
GATCGTG | 0.112 | 0.0196 | -0.382 | -0.416 | 0.0543 | -0.667 | 0.215 | 0.0748 | 0.0844 | -0.175
ACTGACC | -0.157 | -0.0108 | -0.0768 | 0.593 | -0.0089 | 0.88 | 0.0928 | 0.013 | -0.133 | -0.0819
ATGGCGG | 0.00146 | -0.0455 | -0.318 | -0.116 | 0.00682 | -0.433 | 0.144 | 0.0429 | -0.0911 | -0.0988
GATTGAT | -1.28 | -1.06 | -0.0873 | 0.181 | -0.137 | 0.262 | -1.54 | 0.0351 | -0.0664 | -0.0775
